The supplement of paper PMC9174493
This is one part of the list. Single values of this set are uncertain. Values with irradiation are relative to irradiated vehicle.

The molecules below were run on A549-Dual (assay: NF-kB reporter (SEAP) activity, viability-corrected, relative to vehicle (fold change vs vehicle); higher = more activation of STING-IRF / NF-kB immune response reporter). Conditions: 10 µM; irradiation: none.
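Further: viability correction based on the alamar blue assay, with concentrations leaving 10% survival or less dropped.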

Structure (SMILES) | NF-kB reporter
Cc1oc(=O)oc1CN1CCN(c2cc3c(cc2F)c(=O)c(C(=O)O)c2n3C(C)S2)CC1 (configuration not stated) [Prulifloxacin (NM441, AF 3013)] | 1.1
C[N+](C)(C)C[C@H](O)CC(=O)[O-] [L-carnitine] | 0.897
CC(C)NCC(O)COc1cccc2[nH]c3ccccc3c12 (configuration not stated) [Carazolol] | 1.4
O=CC(O)C(O)C(OC1OC(CO)C(O)C(O)C1O)C(O)CO (configuration not stated) [Lactose] | 0.791
Cc1c(OCC(F)(F)F)ccnc1CS(=O)c1nc2ccccc2[nH]1 (configuration not stated) [Lansoprazole] | 0.876
CCOc1cc(N)c(Cl)cc1C(=O)NCC1CN(Cc2ccc(F)cc2)CCO1.O=C(O)CC(O)(CC(=O)O)C(=O)O (configuration not stated) [Mosapride Citrate] | 0.856
CC(C)(Oc1ccc(C2CC2(Cl)Cl)cc1)C(=O)O (configuration not stated) [Ciprofibrate] | 0.827
COc1ccc2c(c1)C(=O)N(CCc1ccc(S(=O)(=O)NC(=O)NC3CCCCC3)cc1)C(=O)C2(C)C [Gliquidone] | 0.658
OCC(O)C(O)CO (configuration not stated) [Erythritol] | 0.576
CC1OC(OCC2OC(Oc3c(-c4ccc(O)c(O)c4)oc4cc(O)cc(O)c4c3=O)C(O)C(O)C2O)C(O)C(O)C1O (configuration not stated) [Rutin hydrate] | 0.692
CCC1=C(C)CN(C(=O)NCCc2ccc(S(=O)(=O)NC(=O)NC3CCC(C)CC3)cc2)C1=O (configuration not stated) [Glimepiride] | 0.867
CC(COc1ccccc1Cc1ccccc1)N1CCCCC1.O=P(O)(O)O (configuration not stated) [Benproperine phosphate] | 0.824
